According to the supplement of paper PMC3334620:
Over roughly 33,000 sequences, “E-score (-0.5 to 0.5)” has its median near -0.054; the highest 2% begin near 0.35. Some of the results follow.

biological target: T1, Stb5 (UniProt P38699); experiment: PBM E-score (8-mer binding enrichment) (E-score (-0.5 to 0.5)); higher = stronger / more preferred TF binding; most listed sequences are background and not binding sites; settings: protein concentration: 200 nM; construct: GST-full length
T1 sequence: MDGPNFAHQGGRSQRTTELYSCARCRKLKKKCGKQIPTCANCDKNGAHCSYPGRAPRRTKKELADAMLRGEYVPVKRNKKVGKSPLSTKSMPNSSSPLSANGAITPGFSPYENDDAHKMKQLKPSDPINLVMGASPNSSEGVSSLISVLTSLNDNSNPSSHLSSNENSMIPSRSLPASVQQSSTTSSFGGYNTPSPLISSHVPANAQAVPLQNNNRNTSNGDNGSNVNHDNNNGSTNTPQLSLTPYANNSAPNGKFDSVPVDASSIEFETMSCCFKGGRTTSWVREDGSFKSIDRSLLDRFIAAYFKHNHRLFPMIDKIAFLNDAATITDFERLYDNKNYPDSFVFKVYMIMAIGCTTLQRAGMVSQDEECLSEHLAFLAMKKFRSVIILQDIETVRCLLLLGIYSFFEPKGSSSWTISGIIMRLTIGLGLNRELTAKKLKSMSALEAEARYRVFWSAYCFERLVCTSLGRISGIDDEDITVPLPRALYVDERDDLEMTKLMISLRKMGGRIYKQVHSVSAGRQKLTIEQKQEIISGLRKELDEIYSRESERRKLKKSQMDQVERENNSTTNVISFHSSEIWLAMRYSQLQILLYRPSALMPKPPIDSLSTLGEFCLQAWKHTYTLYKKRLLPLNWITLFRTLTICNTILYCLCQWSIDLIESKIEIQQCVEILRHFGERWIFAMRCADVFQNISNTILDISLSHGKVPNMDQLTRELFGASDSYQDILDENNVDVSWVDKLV
How it was run: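 Using PURExpress in vitro transcription/translation, GST-tagged yeast transcription factors were made in full-length or DNA-binding-domain form. These were applied at about 100-200 nM to double-stranded universal all-10-mer Agilent arrays, and bound protein was detected with fluorescent anti-GST. Scans were normalised with masliner before the Universal PBM Analysis Suite assigned E-scores to ungapped eight-base words pooled with their reverse complements.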

Compared with CCGCAGGA, CGAGCCTC is lower in “PBM E-score” value: 0.163 for the first, -0.0223 for the second.

First: CGCCGATA
Second: ACGCCTCT
The “PBM E-score” value of the first is higher: 0.36 for the first, -0.306 for the second.

Compared with ACGAAGGC, ACCGAAGC is higher in “PBM E-score” value: -0.132 for the first, 0.155 for the second.

Going from ATCGCGCG to AGGCGACC, the “PBM E-score” value falls from 0.179 to -0.199.

First: GATCATCA
Second: TCACCTGA
The “PBM E-score” value of the first is lower: -0.169 for the first, -0.147 for the second.

First: ATCGATCA
Second: ACAGAAGT
The “PBM E-score” value of the first is higher: -0.103 for the first, -0.107 for the second.

Compared with CCGTAAAC, CCATGGAC is lower in “PBM E-score” value: 0.205 for the first, -0.0874 for the second.

Compared with GCCAGCCC, ACGAAGGA is lower in “PBM E-score” value: -0.00461 for the first, -0.113 for the second.

First: ACTGTAGG
Second: CTTACGTC
The “PBM E-score” value of the first is higher: -0.137 for the first, -0.226 for the second.

Compared with TCATTAAA, AAAGGTCG is lower in “PBM E-score” value: 0.093 for the first, -0.012 for the second.

Compared with TCTTAAAA, GTTATGGA is higher in “PBM E-score” value: -0.144 for the first, -0.0466 for the second.

First: CTTAGTAA
Second: TCCATGCA
The “PBM E-score” value of the first is lower: -0.126 for the first, 0.013 for the second.

Compared with AGCACGCT, ACTCTACA is higher in “PBM E-score” value: -0.296 for the first, -0.153 for the second.

Going from CACTCCGA to CCTCTGCC, the “PBM E-score” value falls from 0.242 to -0.0836.

Compared with ACCAATAG, AATGCCCG is higher in “PBM E-score” value: -0.105 for the first, 0.362 for the second.

Going from AAGCACCA to AGTGCTTG, the “PBM E-score” value falls from -0.12 to -0.237.

First: CGAATGTC
Second: ATTTGCCG
The “PBM E-score” value of the first is lower: 0.0399 for the first, 0.31 for the second.

Compared with AACATACG, CTCTCCTA is lower in “PBM E-score” value: 0.00618 for the first, -0.269 for the second.

Going from GAATAGCC to GAAGGACC, the “PBM E-score” value rises from 0.102 to 0.123.

Going from AGTGGTTG to ACGGCGTG, the “PBM E-score” value rises from -0.0565 to 0.208.

First: CGAGTTTC
Second: GAGGCTAC
The “PBM E-score” value of the first is higher: -0.0887 for the first, -0.189 for the second.

Going from AATAGGCA to ATGAACAA, the “PBM E-score” value falls from 0.00142 to -0.0777.

First: AACAGCGA
Second: AGCTGTAT
The “PBM E-score” value of the first is higher: 0.235 for the first, -0.208 for the second.

Compared with GGACGCGA, TAGCAACA is higher in “PBM E-score” value: -0.168 for the first, -0.0498 for the second.

Going from CCGCTAGC to ACCTTACC, the “PBM E-score” value falls from 0.224 to -0.13.

Going from CGTATCCA to GAATAGTA, the “PBM E-score” value rises from -0.225 to -0.0545.

Going from AACACGCC to GGATAAGA, the “PBM E-score” value falls from 0.0462 to -0.0778.

Going from AGTAAATC to GAAATGTC, the “PBM E-score” value rises from -0.1 to 0.0422.

First: AAGATTGA
Second: CGGACAAG
The “PBM E-score” value of the first is lower: -0.153 for the first, 0.193 for the second.

Compared with CACTCCCG, CTAAGAAG is lower in “PBM E-score” value: -0.00235 for the first, -0.115 for the second.

Compared with GAGCGACC, CAAACCCA is lower in “PBM E-score” value: -0.0787 for the first, -0.274 for the second.

Going from AGCATTAG to ATCGTTGA, the “PBM E-score” value falls from -0.0678 to -0.11.

Compared with ATCGTCAA, CACCTTAG is higher in “PBM E-score” value: -0.12 for the first, -0.116 for the second.

Compared with ACCCACGT, CTCTCTGC is higher in “PBM E-score” value: -0.257 for the first, -0.168 for the second.

Compared with AAACGGTA, ACATTTAT is lower in “PBM E-score” value: 0.261 for the first, -0.0897 for the second.

First: GCTCTTTA
Second: ACTGAGAA
The “PBM E-score” value of the first is lower: 0.0664 for the first, 0.0797 for the second.

First: GCAACCCC
Second: ACGGACTC
The “PBM E-score” value of the first is lower: 0.201 for the first, 0.297 for the second.

Going from CGGGATTA to ATAAATGG, the “PBM E-score” value falls from 0.471 to -0.128.

First: ATGACGAG
Second: TACTGGGA
The “PBM E-score” value of the first is higher: -0.0671 for the first, -0.155 for the second.

Going from CGAAAGAA to AGTGCGAC, the “PBM E-score” value rises from 0.0281 to 0.0565.

Compared with AGCGAGGG, ACCCGAGG is higher in “PBM E-score” value: -0.189 for the first, -0.086 for the second.

First: TGTGTTAA
Second: ATGGTTTA
The “PBM E-score” value of the first is lower: -0.145 for the first, -0.0842 for the second.

Going from CCATTATA to CTCGTTGC, the “PBM E-score” value falls from 0.0945 to -0.218.

Compared with GTACACAA, GTACAACA is higher in “PBM E-score” value: -0.136 for the first, -0.126 for the second.

Going from CGCGTTCA to ATACATGC, the “PBM E-score” value rises from -0.00418 to 0.06.

Going from CATGCCGG to GCAGGAAC, the “PBM E-score” value falls from 0.344 to -0.0959.

First: CTATGACA
Second: CGTCTTGA
The “PBM E-score” value of the first is lower: 0.0495 for the first, 0.0557 for the second.

Compared with ACGATGGC, AACAGAAA is higher in “PBM E-score” value: -0.146 for the first, -0.0585 for the second.

Going from AATTATCC to ACATGGTA, the “PBM E-score” value falls from 0.224 to -0.0696.

First: ACGCCATC
Second: CAAGGGCA
The “PBM E-score” value of the first is higher: -0.0194 for the first, -0.356 for the second.

Compared with ATGAGACC, ATCAAAGG is lower in “PBM E-score” value: 0.0282 for the first, -0.132 for the second.

Going from ATTCATGA to CCACCGAA, the “PBM E-score” value rises from -0.0343 to 0.117.

Compared with GTGTAATA, ATGGCCAA is lower in “PBM E-score” value: 0.209 for the first, -0.167 for the second.

First: GCGGGCCA
Second: CTCTTGTC
The “PBM E-score” value of the first is higher: 0.0443 for the first, -0.198 for the second.

Compared with AGATTTAG, TACATTAA is lower in “PBM E-score” value: 0.0604 for the first, -0.206 for the second.

Going from ATACCAAA to CCCCGCCC, the “PBM E-score” value rises from -0.0367 to 0.43.

Going from AACTTCTC to CCGATTTC, the “PBM E-score” value rises from -0.137 to 0.21.

Going from ACAGATAG to ATGCACTC, the “PBM E-score” value rises from -0.145 to -0.139.

Going from GCTGGGTA to AACAGTAT, the “PBM E-score” value rises from -0.213 to -0.21.

Going from CCATTGAG to ACTTATGG, the “PBM E-score” value rises from -0.00205 to 0.0742.

Compared with AACGTTCC, GGAGTTTA is higher in “PBM E-score” value: 0.013 for the first, 0.362 for the second.

Compared with CTTGAGAA, ATTTCGTA is higher in “PBM E-score” value: -0.194 for the first, -0.117 for the second.

Compared with GTTGCCTA, CTGCCGCC is higher in “PBM E-score” value: -0.199 for the first, 0.198 for the second.

Going from GACCATCA to CAAGTTGA, the “PBM E-score” value falls from 0.0409 to -0.113.

Compared with AAAGTTAA, ACTTATAC is higher in “PBM E-score” value: 0.0914 for the first, 0.166 for the second.

Going from AAGTAAGT to AACGGCAG, the “PBM E-score” value rises from -0.0931 to 0.107.

First: GATCTCGC
Second: CAATTCTC
The “PBM E-score” value of the first is lower: -0.131 for the first, 0.0208 for the second.

Going from ATTGTGTC to GTTGGACA, the “PBM E-score” value falls from -0.0554 to -0.179.

Going from ATAGAAAG to ATACCGCG, the “PBM E-score” value rises from 0.0164 to 0.33.

First: ATTTATTG
Second: GAGCGCTC
The “PBM E-score” value of the first is lower: -0.0662 for the first, -0.0134 for the second.

Going from TACTATGA to AGTCGGAC, the “PBM E-score” value rises from -0.12 to 0.398.

First: ACTTCCCG
Second: AGTTAGGA
The “PBM E-score” value of the first is higher: 0.144 for the first, 0.0545 for the second.

First: GGCTAGTA
Second: ACCCTCGT
The “PBM E-score” value of the first is higher: -0.139 for the first, -0.181 for the second.

Compared with AATTGCGC, CATGGTAA is lower in “PBM E-score” value: 0.117 for the first, -0.085 for the second.

Going from CTTTCCAC to ACGTATAC, the “PBM E-score” value falls from 0.0653 to -0.162.

Compared with GTGCGACA, AGGAATGA is lower in “PBM E-score” value: 0.0522 for the first, -0.0687 for the second.

Compared with ACGCAAGT, AGTTAGTC is higher in “PBM E-score” value: -0.0285 for the first, 0.168 for the second.

First: CGCGGGAC
Second: CATGGCAC
The “PBM E-score” value of the first is higher: 0.266 for the first, 0.166 for the second.

Going from CGTGGGCA to CGTATCGA, the “PBM E-score” value rises from -0.204 to -0.144.

Going from CGTGAGAA to AACATTGA, the “PBM E-score” value falls from 0.107 to 0.0134.

Going from CCACTCGA to CACTTCCG, the “PBM E-score” value rises from -0.306 to 0.00228.

Compared with GCTAGTGA, CGGCGCAG is higher in “PBM E-score” value: -0.226 for the first, 0.0247 for the second.

Going from AGTACCAC to ACCCTCAT, the “PBM E-score” value falls from -0.0243 to -0.315.

First: CCGGTTAG
Second: ATACTCCG
The “PBM E-score” value of the first is lower: 0.235 for the first, 0.371 for the second.

Compared with AACGAGTG, TAACAGGA is higher in “PBM E-score” value: -0.183 for the first, -0.0687 for the second.

Compared with CGAAATGC, GCCGATAC is higher in “PBM E-score” value: -0.103 for the first, 0.304 for the second.
